# Laboratory results reported in PubChem BioAssay AID488969 (Vanderbilt High Throughput Screening Facility, 2010).
# The full ranking holds about 110,000 compounds; the median of “z-score” is about -0.1, and the highest 2% start at about 2. Some of the results follow. The source made the active and inactive calls.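 Rule for the calls: active = z-score in the third read window above 3 or below -3; inactive = the rest.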 Residues, ends and D or L forms follow the SMILES beside them. *: point of attachment. Boc = CC(C)(C)OC(=O)*
# Molecular target: Metabotropic glutamate receptor 8 (Rattus norvegicus) (UniProt P70579)
# Sequence of UniProt P70579 (P70579 whole entry, looked up): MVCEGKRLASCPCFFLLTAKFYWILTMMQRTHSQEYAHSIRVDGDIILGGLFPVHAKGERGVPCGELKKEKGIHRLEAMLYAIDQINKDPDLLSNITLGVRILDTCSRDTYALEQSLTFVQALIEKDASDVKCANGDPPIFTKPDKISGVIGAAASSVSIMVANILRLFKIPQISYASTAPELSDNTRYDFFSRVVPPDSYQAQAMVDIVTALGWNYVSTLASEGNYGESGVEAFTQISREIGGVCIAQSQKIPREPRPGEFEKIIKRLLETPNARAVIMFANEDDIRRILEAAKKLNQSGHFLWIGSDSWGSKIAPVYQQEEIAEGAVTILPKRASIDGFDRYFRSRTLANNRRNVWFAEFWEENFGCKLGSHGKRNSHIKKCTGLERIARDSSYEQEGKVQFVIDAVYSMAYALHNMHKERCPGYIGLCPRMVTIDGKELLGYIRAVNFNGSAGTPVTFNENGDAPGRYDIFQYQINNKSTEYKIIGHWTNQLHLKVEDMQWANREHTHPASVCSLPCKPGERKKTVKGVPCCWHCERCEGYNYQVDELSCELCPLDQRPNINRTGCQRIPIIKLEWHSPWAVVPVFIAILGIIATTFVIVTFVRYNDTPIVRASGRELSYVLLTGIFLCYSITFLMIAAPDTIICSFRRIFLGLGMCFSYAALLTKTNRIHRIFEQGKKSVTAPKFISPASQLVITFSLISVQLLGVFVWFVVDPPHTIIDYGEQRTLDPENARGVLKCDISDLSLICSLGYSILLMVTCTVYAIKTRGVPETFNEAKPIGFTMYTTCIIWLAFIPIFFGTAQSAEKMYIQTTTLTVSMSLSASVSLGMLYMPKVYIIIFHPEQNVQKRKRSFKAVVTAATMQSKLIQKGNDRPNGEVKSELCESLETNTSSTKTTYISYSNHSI
# Experiment: rat mGluR8 modulators via GIRK flux, primary screen, cell-based, thallium flux, HTS (AID 488969)
# Details: HEK293 rat mGluR8, GIRK (G protein-gated inwardly rectifying potassium channel) thallium flux, FluoZin2; at 10 µM; stronger effect = higher value; submaximal glutamate (EC20) added with thallium
row,SMILES,z-score
1,Cc1cccc(Oc2cc(NC(=O)Cn3cnc([N+](=O)[O-])n3)cc([N+](=O)[O-])c2)c1,-0.113
2,CC(C)NS(=O)(=O)c1ccc(NC(=S)NC(=O)c2cccc([N+](=O)[O-])c2)cc1,-0.0995
3,Cc1ccc(NC(=O)c2cc(NC(=O)c3ccco3)ccc2N2CCOCC2)cc1,-0.747
4,CCN1C(=O)/C(=C/C=C2/Sc3ccc4ccccc4c3N2CCO)SC1=S,-0.294
5,CN(C)c1ccc(C=NCCC2(O)CCOC(C)(C)C2)cc1 (centres undefined),-0.256
6,O=C(Nc1ccc(NC(=O)c2cccs2)cn1)c1ccco1,1.94
7,Cc1cc(/C=C2/NC(=O)NC2=O)c(C)n1-c1sc2c(c1C#N)CCCC2,-0.0154
8,O=C(NC1CCCCC1)C(c1ccncc1)N(C(=O)Cn1nnc(-c2cccs2)n1)C1CCCC1 (centres undefined),1.25
9,COc1ccc(NC(=O)C2CCCCN2S(=O)(=O)c2ccc(F)cc2)cc1 (centres undefined),-0.283
10,COc1ccc(/C=C(/C(=O)NCc2ccccc2)c2ccccc2)cc1,-0.482
11,C/C(=N\OC(=O)NC1CCCCC1)c1sc(-c2ccccc2)nc1C,-0.257
12,Cc1ccc(Nc2nc(CSc3nnnn3-c3ccccc3)cs2)cc1,-0.0548
13,Cc1cnc(C(=O)OCC(=O)Nc2ccc(Cl)cc2)cn1,-0.632
14,CC(C)c1cccc(C(C)C)c1NC(=O)COc1nncc2ccccc12,-0.361
15,CC(C)Cc1nc2n[nH]c(N)c2c2c1CCCC2,-0.155
16,CC(C)(C)n1nnnc1C(c1cccs1)N(Cc1ccc(Cl)cc1)CC1CCCO1 (centres undefined),-0.113
17,COc1cccc(-n2c(Cc3cc(=O)[nH]c(=O)[nH]3)nnc2SC(C)C)c1,-0.195
18,CCOC(=O)CC1ON(C)C(=O)N1c1ccc([N+](=O)[O-])cc1 (centres undefined),0.0464
19,O=C(N/N=C/c1ccncc1)c1cc(Br)ccc1OCc1ccccc1,0.109
20,CCCc1cc(=O)[nH]c(SCC(=O)OCc2ccccc2)n1,-0.208
21,CCCCC(=O)Nc1cc(NC(=O)CC)ccc1Cl,-0.0794
22,CC(NC(=O)OC(C)(C)C)C(=O)N1CCCC1C(=O)NC(Cc1ccccc1)C(N)=O (stereo not drawn) (Boc-Ala-Pro-Phe-NH2; configuration not given here),0.392

row,SMILES,z-score
1,Cc1nc(-c2ccccc2)sc1C(N)=O,0.19
2,CCC(C)NC(=O)c1ccc(COc2ccccc2Cl)cc1 (centres undefined),-0.049
3,N#C/C(=C\c1ccc(N2CCOCC2)c([N+](=O)[O-])c1)c1nc2ccccc2[nH]1,2.63
4,Cc1ccccc1NC1=C(Cl)C(=O)OC1OC(C)C (centres undefined),-0.0282
5,Cc1cccc(Cn2c(SCC(=O)Nc3ccccc3)nc3c2c(=O)[nH]c(=O)n3C)c1,-0.546
6,CCN(CC)CCN(C(=O)Cn1nnc(-c2ccc(OC)c(OC)c2)n1)C(C(=O)NC1CCCC1)c1ccc(F)cc1 (centres undefined),-0.225
7,Cc1ccc(N2CC(C(=O)Nc3cc(C)on3)CC2=O)cc1 (centres undefined),-0.203
8,CCCc1cc(=O)n2[nH]c(Cc3ccccc3)nc2n1,-1.87
9,Cc1oc(-c2ccccc2Cl)nc1CSCC(=O)NC1CC1,-0.779
10,CCc1cccc(CC)c1NC(=S)NCC(c1cccnc1)N1CCOCC1 (centres undefined),0.00701
11,Cc1c(NC(=O)COC(=O)c2cc3c4ccccc4n(C)c3s2)c(=O)n(-c2ccccc2)n1C,-1.5
12,CC(C)[C@H](Nc1ccc(S(=O)(=O)N2CCOCC2)cc1[N+](=O)[O-])C(=O)OCC(N)=O,-0.189
13,Nc1nc(Nc2ccc(Cl)cc2)nc2ccccc12,0.397
14,O=[N+]([O-])c1cccc(CN(CCO)Cc2ccccc2)c1,-0.194
15,Fc1ccc(-c2cn3cc(C(F)(F)F)cc(Cl)c3n2)cc1,-0.424
16,Oc1oc(-c2cccc3ccccc23)nc1/C=N/c1nccs1,active: 7.77
17,COc1ccc(-c2noc(CSc3nc4ccccc4c(=O)n3-c3ccc(C)cc3)n2)cc1,0.0372
18,CCOC(=O)N1N=C(c2ccc(C)cc2)CC1(O)C(F)(F)F (centres undefined),-0.162
19,NC(=O)c1c(NC(=O)CSc2nnc(-c3ccco3)n2N)sc2c1CCCC2,-0.428
20,COc1ccc(Cl)cc1S(=O)(=O)Nc1cccc(C(=O)O)c1,0.587
21,Cn1c(NC(=O)c2cc(Br)ccc2Cl)cc(=O)n(C)c1=O,-0.253
22,CCNS(=O)(=O)c1ccc(NC(=O)Cc2ccc(F)cc2)cc1,0.35

row,SMILES,z-score
1,Nc1nc(SCc2ccccc2)[nH]c(=O)c1-c1ccccc1,-0.741
2,N#CCC(=O)Nc1ncn(Cc2ccccc2Cl)n1,-0.181
3,CC(C)(C)c1ccc(C(=O)Nc2ccc(NC(=O)c3ccco3)cc2)cc1,0.327
4,CN(C)c1ccc(NC(=O)c2ccc([N+](=O)[O-])cc2Cl)cc1,-0.282
5,COc1ccc(NC(=O)Cc2ccc(C)cc2)c([N+](=O)[O-])c1,0.104
6,O=c1cc(-c2ccc([N+](=O)[O-])cc2)nc2cc(-c3ccc(Cl)cc3)[nH]n12,0.0459
7,CCN(CC)c1ccc(NC(=O)c2ccc(Cl)nc2)cc1,-0.204
8,Cc1ccc(C)c(NC(=O)CCCCCCCCCCC2COCCO2)c1 (centres undefined),-0.192
9,CCOc1ccc(CCNC(=O)COC(=O)c2cccnc2OCC)cc1OCC,-0.206
10,COc1ccc(OC(=O)c2ccc3nsnc3c2)cc1,-0.0714
11,Cc1cccc2cc3c(N)c(C(=O)N4CCc5ccccc54)sc3nc12,-0.081
12,O=C(Nc1ccc2nc(-c3cccnc3)[nH]c2c1)C12CC3CC(CC(C3)C1)C2,-0.105
13,O=C(O)CN1C(=O)COc2cc(S(=O)(=O)N3CCCC3)ccc21,-0.317
14,COc1ccc(-c2nnc(SCC(=O)N3c4ccccc4Sc4ccccc43)o2)cc1,-1.63
15,O=C(COC(=O)c1ccc([N+](=O)[O-])s1)Nc1ncc(C(F)(F)F)cc1Cl,-0.442
16,CN(C)c1ccc(C2=NOC(CN3C(=O)c4ccccc4S3(=O)=O)C2)cc1 (centres undefined),0.443
17,Cc1c(Cl)cccc1NC(=S)N1CCN(Cc2ccccc2)CC1,-0.495
18,Cc1ccc(C(=O)N/C(N)=N/c2nc3ccccc3o2)cc1,-0.204
19,COc1ccc(-c2csc(N3C(=N)SCC3=O)n2)cc1,-0.116
20,CC(NC(=O)/C(=C/c1cccc([N+](=O)[O-])c1)NC(=O)c1ccco1)C(=O)O (centres undefined),-0.753
21,COc1ccc(OC)c(C2c3c(oc4ccccc4c3=O)C(=O)N2CCCN(C)C)c1 (centres undefined),-0.648
22,COC(=O)c1sccc1-c1ccc(/C=N/OC(=O)c2ccccc2)o1,-0.169

row,SMILES,z-score
1,CC(C)NC(=O)c1ccccc1NC(=O)c1ccccc1N(C)S(C)(=O)=O,0.524
2,O=C(NC1C=CS(=O)(=O)C1)c1sc2ccccc2c1Cl (centres undefined),-0.491
3,CSc1nc(NC(C)(C)C)nc(Oc2ccc(=O)[nH]n2)n1,-0.539
4,COc1ccccc1Nc1nc(N)nc(-c2oc3ccccc3c2C)n1,-0.532
5,O=C(CCCC(=O)OCC(=O)c1ccc(F)cc1)Nc1cc(C(F)(F)F)ccc1Cl,-0.289
6,CCN(CC)C(=O)C(=O)Nc1cc(C(F)(F)F)ccc1Cl,-0.269
7,Cc1nn(Cc2ccc(Cl)cc2)c(Cl)c1/C=N/NC(=O)c1cccnc1,-0.279
8,Cc1[nH]nc2c1C1(CCOC1C)C(C#N)=C(N)O2 (centres undefined),-0.159
9,COc1cccc(NC2=Nc3cccc4cccc2c34)c1,-0.0945
10,CC1C(=O)CC(c2ccccc2)N(C)C1c1ccccc1 (centres undefined),-0.0361
11,Nc1ccccc1SCc1cc([N+](=O)[O-])cc2c1OCOC2,-0.345
12,O=C(Nc1nc2c(s1)CCCC2)c1nn(Cc2ccccc2)c(=O)c2ccccc12,-0.449
13,NNC(=O)c1cccc(COc2ccccc2Br)c1,-0.116
14,COc1cc(C=C(c2nc3ccccc3s2)c2nc3ccccc3s2)cc(OC)c1O,-0.0321
15,COCCNC(=O)CSc1nc2nc(C)cc(C)n2n1,0.333
16,Fc1cccc(F)c1/C=C/c1ccc2ccccc2n1,0.134
17,COc1ccc(OCC(=O)O/N=C(\N)Cc2cccs2)cc1,-0.241
18,COC(=O)C1=C(C)NC(=O)C1(Nc1nccs1)C(F)(F)F (centres undefined),0.151
19,CC(=O)N1N=C(c2ccncc2)OC12CCCC2,0.267
20,CCC(CC)NC(=O)c1n[nH]c(=O)c2ccccc12,0.141
21,CC1(C(=O)CSc2nc3ccccc3[nH]2)CCC(=O)O1 (centres undefined),0.199
22,Cc1ccc2nc(-c3ccccc3)cc(C(=O)N3CCc4ccccc4C3)c2c1,-0.613

row,SMILES,z-score
1,Cc1cc(Br)c2[nH]c3c(c2c1)CCCC3=O,1.57
2,COc1ccc(C=C(c2ccc(OC)cc2)c2ccc(OC)cc2)cc1,-0.157
3,Cc1ccc(N2C(=O)c3cccc(Oc4ccc(Cl)cc4)c3C2=O)c(C)c1,-0.0489
4,Cc1ccc(NC(=O)N2CCc3ccccc3C2)cc1,-0.106
5,CC(=O)N(c1ccc2oc(=O)sc2c1)S(=O)(=O)c1cccs1,-1.33
6,Cc1cc(C)c(S(=O)(=O)c2c(C)cccc2C)c(OCC(C)C)n1,-0.113
7,C=CCc1c(C)nc(C)nc1N/N=C/c1ccc(N(C)C)cc1,-0.44
8,Cc1ccc(N=N/C(=C\O)C(=O)c2ccncc2)cc1,0.149
9,CCOC(=O)c1sc(-n2[nH]c(C)cc2=O)nc1C,0.908
10,Cc1ccc(S(=O)(=O)N(CC(=O)N2CCOCC2)C2CCCCC2)cc1,-0.206
11,COc1ccc(Nc2nc(NCc3ccco3)nc(N/N=C/c3ccccc3Cl)n2)cc1,-2.11
12,O=c1c2c3c(sc2nc(NCCO)n1Cc1ccco1)CCCCC3,0.278
13,Cc1cc(C)nc(NC(=O)c2ccc(Cl)c(Cl)c2)n1,0.159
14,NC(=O)C1CCN(C(=O)c2ccco2)CC1,0.148
15,CCCN1C(=O)C(O)(CC(=O)c2ccc3c(c2)OCCO3)c2ccccc21 (centres undefined),-0.33
16,CCC(=O)Nc1cccc(NC(=S)NC(=O)c2ccccc2)c1,-0.455
17,CCCCCn1c(CN(C)Cc2ccccc2)nc2c1c(=O)n(C)c(=O)n2C,0.218
18,CC(C)N(Cc1ccccc1)S(=O)(=O)N(C)C,-0.0764
19,CCOc1ccc(NC(=S)NN2CCN(C)CC2)cc1,-0.0721
20,COc1ccccc1C1CC(c2c(-c3ccccc3)c3cc(Cl)ccc3[nH]c2=O)=NN1S(C)(=O)=O (centres undefined),0.286
21,C=CCN(C(=O)c1ccccc1)c1ccc(OC)cc1,-0.282
